Binding data for two molecules are collected here from PMC9462479.

Results are given in words; binding and its absence hold for the method and conditions named. Binding seen in cells or lysates may run through a third protein. Some binding calls cover weakened binding; strength is not graded here. For some of these results: Where a sequence is shown, tags or fusion partners need not be part of it.

Test [1] has as its target T1, SREBF1, endogenous in NCI-H295R adrenocortical cells (human (endogenous in NCI-H295R)) (UniProt P36956).
T1 sequence: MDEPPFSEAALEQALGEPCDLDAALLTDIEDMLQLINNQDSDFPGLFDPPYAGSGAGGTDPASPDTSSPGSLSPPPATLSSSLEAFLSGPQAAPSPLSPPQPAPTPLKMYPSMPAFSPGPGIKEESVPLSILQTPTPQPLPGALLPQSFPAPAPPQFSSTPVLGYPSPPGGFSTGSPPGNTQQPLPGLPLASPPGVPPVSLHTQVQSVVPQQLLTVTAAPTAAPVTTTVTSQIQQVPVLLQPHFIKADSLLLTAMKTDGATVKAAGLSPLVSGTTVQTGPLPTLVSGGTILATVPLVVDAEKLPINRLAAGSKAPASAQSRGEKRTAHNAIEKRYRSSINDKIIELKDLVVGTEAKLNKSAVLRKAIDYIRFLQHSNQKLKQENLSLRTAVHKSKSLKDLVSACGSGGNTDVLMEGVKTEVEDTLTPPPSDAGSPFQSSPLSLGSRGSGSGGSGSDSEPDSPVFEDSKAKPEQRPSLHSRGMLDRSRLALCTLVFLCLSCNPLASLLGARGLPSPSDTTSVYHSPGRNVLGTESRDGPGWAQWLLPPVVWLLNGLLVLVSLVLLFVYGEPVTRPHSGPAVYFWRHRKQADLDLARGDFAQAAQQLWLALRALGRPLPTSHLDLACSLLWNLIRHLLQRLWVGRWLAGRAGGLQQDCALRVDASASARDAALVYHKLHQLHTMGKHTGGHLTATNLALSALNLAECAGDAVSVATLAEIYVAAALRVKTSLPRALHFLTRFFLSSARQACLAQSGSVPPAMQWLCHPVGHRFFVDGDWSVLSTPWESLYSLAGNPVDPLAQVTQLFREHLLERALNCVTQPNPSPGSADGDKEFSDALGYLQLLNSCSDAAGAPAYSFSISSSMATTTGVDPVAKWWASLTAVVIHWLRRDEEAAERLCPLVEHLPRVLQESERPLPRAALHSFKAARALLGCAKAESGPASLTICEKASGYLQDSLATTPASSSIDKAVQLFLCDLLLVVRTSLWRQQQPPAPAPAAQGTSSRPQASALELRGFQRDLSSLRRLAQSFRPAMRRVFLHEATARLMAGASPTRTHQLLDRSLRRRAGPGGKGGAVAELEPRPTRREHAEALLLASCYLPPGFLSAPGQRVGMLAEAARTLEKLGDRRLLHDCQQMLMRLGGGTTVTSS
Nature of the test: proximity ligation; in situ proximity ligation assay (Duolink RED) in fixed, permeabilised NCI-H295R cells with anti-ARMC5 and anti-SREBF1 antibodies.

Test [2] deals with T2, FLAG-tagged full-length mouse SREBF1 (pcDNA3.1-FLAG-Srebf1) (mouse) (UniProt Q9WTN3).
T2 sequence: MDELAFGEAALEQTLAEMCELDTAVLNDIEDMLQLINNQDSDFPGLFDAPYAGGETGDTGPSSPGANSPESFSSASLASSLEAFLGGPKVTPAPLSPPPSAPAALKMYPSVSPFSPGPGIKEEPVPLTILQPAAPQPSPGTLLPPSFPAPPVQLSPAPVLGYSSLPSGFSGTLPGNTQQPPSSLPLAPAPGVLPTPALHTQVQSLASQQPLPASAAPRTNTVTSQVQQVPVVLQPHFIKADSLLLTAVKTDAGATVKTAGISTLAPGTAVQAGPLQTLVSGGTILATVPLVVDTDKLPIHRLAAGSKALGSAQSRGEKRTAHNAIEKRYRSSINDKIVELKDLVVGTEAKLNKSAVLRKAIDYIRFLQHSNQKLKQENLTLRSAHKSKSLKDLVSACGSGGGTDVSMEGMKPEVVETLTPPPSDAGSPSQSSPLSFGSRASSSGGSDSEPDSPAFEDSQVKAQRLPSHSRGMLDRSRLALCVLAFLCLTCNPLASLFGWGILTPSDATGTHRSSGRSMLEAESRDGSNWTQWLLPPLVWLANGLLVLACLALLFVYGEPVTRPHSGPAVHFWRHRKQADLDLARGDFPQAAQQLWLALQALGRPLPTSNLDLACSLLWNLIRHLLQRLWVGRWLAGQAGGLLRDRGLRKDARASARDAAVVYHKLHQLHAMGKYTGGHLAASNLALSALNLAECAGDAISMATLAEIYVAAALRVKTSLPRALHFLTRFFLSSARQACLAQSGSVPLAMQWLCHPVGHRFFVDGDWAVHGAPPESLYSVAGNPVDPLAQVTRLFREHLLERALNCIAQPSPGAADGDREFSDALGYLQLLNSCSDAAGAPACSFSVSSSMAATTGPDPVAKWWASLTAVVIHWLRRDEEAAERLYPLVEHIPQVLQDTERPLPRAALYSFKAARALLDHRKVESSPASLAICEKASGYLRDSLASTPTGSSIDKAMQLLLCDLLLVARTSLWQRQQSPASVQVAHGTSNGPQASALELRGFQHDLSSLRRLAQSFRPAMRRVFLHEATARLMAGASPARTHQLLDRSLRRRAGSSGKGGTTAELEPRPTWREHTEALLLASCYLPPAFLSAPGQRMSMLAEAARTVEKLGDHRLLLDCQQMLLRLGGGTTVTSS
The test is described as follows: co-IP; FLAG IP: HEK293T cells transfected, lysed in TNE buffer (150 mM NaCl, 1% NP40), anti-FLAG M2 Affinity Gel, eluted with FLAG peptide, blotted with anti-myc.

Test [3] has as its target T3, FLAG-SREBF1(N), N-terminus of mouse SREBF1, from pcDNA3.1-FLAG-Srebf1(N) in HEK293T (mouse) (UniProt Q9WTN3).
T3 sequence: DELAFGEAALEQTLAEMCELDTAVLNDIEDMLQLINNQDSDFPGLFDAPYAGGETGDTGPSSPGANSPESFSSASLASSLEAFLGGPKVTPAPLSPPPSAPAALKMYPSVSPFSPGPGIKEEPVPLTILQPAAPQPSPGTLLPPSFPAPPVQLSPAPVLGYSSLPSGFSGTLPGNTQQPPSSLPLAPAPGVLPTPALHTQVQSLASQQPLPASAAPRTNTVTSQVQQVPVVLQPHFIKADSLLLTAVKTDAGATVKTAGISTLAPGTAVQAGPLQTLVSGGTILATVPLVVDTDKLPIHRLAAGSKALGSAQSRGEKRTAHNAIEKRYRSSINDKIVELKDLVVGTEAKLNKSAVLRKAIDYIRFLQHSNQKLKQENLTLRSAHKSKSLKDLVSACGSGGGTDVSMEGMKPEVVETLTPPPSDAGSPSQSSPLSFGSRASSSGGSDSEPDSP
The description is as above.

The target in test [4] is T4, FLAG-SREBF2(N), N-terminus of mouse SREBF2 (pcDNA3.1-FLAG-Srebf2(N)) (mouse) (UniProt Q3U1N2).
T4 sequence: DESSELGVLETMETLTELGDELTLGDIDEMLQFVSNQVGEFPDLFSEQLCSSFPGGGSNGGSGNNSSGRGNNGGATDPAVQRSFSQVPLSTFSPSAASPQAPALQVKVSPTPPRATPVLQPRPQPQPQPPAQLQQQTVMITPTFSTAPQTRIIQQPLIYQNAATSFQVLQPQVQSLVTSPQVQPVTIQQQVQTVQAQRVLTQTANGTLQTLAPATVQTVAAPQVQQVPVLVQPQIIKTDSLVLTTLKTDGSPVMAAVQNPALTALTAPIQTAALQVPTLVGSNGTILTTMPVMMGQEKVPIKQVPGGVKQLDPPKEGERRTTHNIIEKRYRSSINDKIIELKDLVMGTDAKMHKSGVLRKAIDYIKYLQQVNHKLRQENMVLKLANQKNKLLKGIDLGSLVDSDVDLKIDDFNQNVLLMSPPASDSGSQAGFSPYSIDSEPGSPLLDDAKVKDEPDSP
The description is as above.

B1: ARMC5, endogenous in NCI-H295R adrenocortical cells (protein, UniProt Q96C12 1-935)
chain: MAAAKPTLTDSLSFCLAQLAAAAGEALGGEKDPATNETPLSRALLALRTRHIKAAGGIERFRARGGLRPLLALLRRAAAAGSAPSQAGPGSAPSSAASGASSPAPASGPAPSAVSSSSPTPPVRLRKTLDLALSILADCCTEGACRTEVRRLGGILPLVTILQCMKTDSIQNRTARALGNLAMEPESCGDIHCAGAVPLLVESLTACQDSQCLQSVVRALRNLADSPQHRLALAQQGAVRPLAELLATAPDAALTLALVRALLELSRGCSRACAEQLSLGGGLGPLVSLASHPKRAVREGTILILANLCAQGLIRPALGNAGGVEVLVDELRQRRDPNGASPTSQQPLVRAVCLLCREAINRARLRDAGGLDLLMGLLRDPRASAWHPRIVAALVGFLYDTGALGRLQALGLVPLLAGQLCGEAGEEEEEGREAASWDFPEERTPERAQGGSFRSLRSWLISEGYATGPDDISPDWSPEQCPPEPMEPASPAPTPTSLRAPRTQRTPGRSPAAAIEEPWGREGPALLLLSRFSQAPDPSGALVTGPALYGLLTYVTGAPGPPSPRALRILSRLTCNPACLEAFVRSYGAALLRAWLVLGVAPDDWPAPRARPTLHSRHRELGERLLQNLTVQAESPFGVGALTHLLLSGSPEDRVACALTLPFICRKPSLWRRLLLEQGGLRLLLAALTRPAPHPLFLFFAADSLSCLQDLVSPTVSPAVPQAVPMDLDSPSPCLYEPLLGPAPVPAPDLHFLLDSGLQLPAQRAASATASPFFRALLSGSFAEAQMDLVPLRGLSPGAAWPVLHHLHGCRGCGAALGPVPPPGQPLLGSEAEEALEAAGRFLLPGLEEELEEAVGRIHLGPQGGPESVGEVFRLGRPRLAAHCARWTLGSEQCPRKRGLALVGLVEAAGEEAGPLTEALLAVVMGIELGARVPA
Consider B1, for which the binding entry in test [1] is “binds”.

B2: myc-tagged mouse ARMC5 (pcDNA3.1-myc-mArmc5) (protein, UniProt Q5EBP3 1-926)
chain: MAAARPALTDSLSFCLAQLTAAAGEGPGGGKDPATNETPLGRALLALRTRHIKAAEGIERFRARGGLRPLLALLRRTAAAGPAPSQAASGSAPSSVASAGSTPGHAPAAESLLTPSLPMRLRKTLDLALSILANCCTEGACRAEVRRLGGILPLVTILQCVKTDSIQNRTARALGNLAMEPESCRDIHSAGAVPFLVESLTACQDSQCLQSIVRALRNLADSPQHRLALAQQGAVRPLAELLATAPDPALTAALVRALLELSRGCSRACAEQLSLGGALGPLVSLASHPKRAIREAAILILANLCAQGLVRPALGNAGGVEVLLGELRRRRSPGGSSSATQQPLVRAVCLLCREAINRARLRDAGGLELLMGLLQDPGASAWHPRVVAALVGFLYDTGALGKLQALGLVPLLARQLCGEAGEEEEEGIEAASWDFPEERTSGQAEGGSFRSLRLWLISEGYAAGPGDISPDWSPERCPMPEPSESVSPTPGQTSMSTPRTLRKPGRIPAATPEEPWGQEGPALLLLSRFSQAPDPSGALVTGPALCGLLAYVTGAPGPPNPRALRILARLTCNPACLEAFVRTYGAALLRAWLVLGVSPDDWPVPHARPVHRSQHRELGEMLLQNLTVQAESPFGVGALTHLLLSGSPEDRVACALTLPFICRKPTLWRRLLLDQGGLRLLLTALTQPAPHPLFLFFAADSLSCLQGLVSPTASPVPLPALPLELDSPPPCLYEPLLGPAPAPAPDLHFVLDSGLQLPAQRAASAAASPFFRALLSGSFAEAQMDLVPLRGLSPGAAWPVLHHLHGCRGCGAALGPVPPPGQPLLGSKAEEALEAAGRFLLPALEEELEEAVGRIHLSPRGGPESVGEVFRLGRPRLAAHCARWTLEPGQCPRKRALALTGLVEAAGEEAGPLTEALLAVVMGIES
Take B2: the binding result in test [2], in test [3] and in test [4] was “binds” throughout.
